# Experimental data: a collection of fitness landscapes (doi:10.1126/science.1257360)
# The other results are listed elsewhere or left out.
# B1: PhoQ; a variant is named by its letters at X, in order, P23837 (parent)
# chain: MKKLLRLFFPLSLRVRFLLATAAVVLVLSLAYGMVALIGYSVSFDKTTFRLLRGESNLFYTLAKWENNKLHVELPENIDKQSPTMTLIYDENGQLLWAQRDVPWLMKMIQPDWLKSNGFHEIEADVNDTSLLLSGDHSIQQQLQEVREDDDDAEMTHSVAVNVYPATSRMPKLTIVVVDTIPVELKSSYMVWSWFIYVLSANLLLVIPLLWVAAWWSLRPIEALAKEVRELEEHNRELLNPATTRELTSLVRNLNRLLKSERERYDKYRTTLTDLTHSLKTPLXXLQXXLRSLRSEKMSVSDAEPVMLEQISRISQQIGYYLHRASMRGGTLLSRELHPVAPLLDNLTSALNKVYQRKGVNISLDISPEISFVGEQNDFVEVMGNVLDNACKYCLEFVEISARQTDEHLYIVVEDDGPGIPLSKREVIFDRGQRVDTLRPGQGVGLAVAREITEQYEGKIVAGESMLGGARMEVIFGRQHSAPKDE
# Variants of: B1
# Assay: enrichment ratio after two sorts for PhoP signalling (ratio (wild type AVST 3.29)); higher = more functional
# Settings: with PhoP (E. coli)
row,Variant,enrichment ratio
1,QHFP,≤ 0.25
2,ATDI,≤ 0.25
3,LVYW,≤ 0.25
4,GFLS,≤ 0.25
5,TGQP,≤ 0.25
6,CAFH,9.67
7,NFRK,≤ 0.25
8,WKHK,≤ 0.25
9,RGNP,≤ 0.25
10,DMLR,≤ 0.25
11,GFTH,≤ 0.25
12,HTDN,≤ 0.25
13,GEWI,≤ 0.25
14,ICCW,≤ 0.25
15,MAHC,≤ 0.25
16,KEPI,≤ 0.25
17,WDYL,≤ 0.25
18,SFWE,≤ 0.25
19,HIYN,≤ 0.25
20,KIAK,≤ 0.25
21,PPFD,≤ 0.25
22,RHIY,≤ 0.25
23,DQFI,≤ 0.25
24,RCVG,≤ 0.25

row,Variant,enrichment ratio
1,YWKR,≤ 0.25
2,LYFQ,≤ 0.25
3,WHNI,≤ 0.25
4,HYLD,≤ 0.25
5,YGLT,7.13
6,TNIN,≤ 0.25
7,TIVN,≤ 0.25
8,SFYI,≤ 0.25
9,MVPT,≤ 0.25
10,IRRE,≤ 0.25
11,DDRS,≤ 0.25
12,MLGG,≤ 0.25
13,QDTI,≤ 0.25
14,KFRI,≤ 0.25
15,DCHS,≤ 0.25
16,GHGK,≤ 0.25
17,LLRV,≤ 0.25
18,VCSK,≤ 0.25
19,ARYP,≤ 0.25
20,DSND,≤ 0.25
21,MYPK,≤ 0.25
22,GEMG,4.41
23,TMDL,≤ 0.25
24,DHCA,≤ 0.25

row,Variant,enrichment ratio
1,VIFC,≤ 0.25
2,YTTW,≤ 0.25
3,EMES,≤ 0.25
4,QFHA,≤ 0.25
5,QCFF,≤ 0.25
6,GDFY,≤ 0.25
7,TFIE,≤ 0.25
8,SKCV,12.3
9,TFMG,1.47
10,RRPY,≤ 0.25
11,IGML,3.65
12,LLDD,≤ 0.25
13,HLNG,≤ 0.25
14,HWSM,≤ 0.25
15,GADS,≤ 0.25
16,HDWY,≤ 0.25
17,NCIM,≤ 0.25
18,QQFA,≤ 0.25
19,HNSK,≤ 0.25
20,GLAV,0.633
21,VNFC,≤ 0.25
22,GRKI,≤ 0.25
23,TPLA,≤ 0.25
24,ACCP,≤ 0.25

row,Variant,enrichment ratio
1,WQYA,≤ 0.25
2,VFVK,≤ 0.25
3,ERIG,≤ 0.25
4,TTWY,14
5,FSCV,9.84
6,MSCK,≤ 0.25
7,MFKP,≤ 0.25
8,WAPV,≤ 0.25
9,VMPK,≤ 0.25
10,QSAN,≤ 0.25
11,RQNA,≤ 0.25
12,EGCM,≤ 0.25
13,SHRV,≤ 0.25
14,TAMY,17.4
15,RIWH,≤ 0.25
16,HFDF,≤ 0.25
17,VCNN,≤ 0.25
18,KIGP,≤ 0.25
19,FNCS,≤ 0.25
20,HLAH,≤ 0.25
21,QSQI,≤ 0.25
22,FMYY,≤ 0.25
23,EIVS,≤ 0.25
24,QNYY,≤ 0.25

row,Variant,enrichment ratio
1,MNIW,≤ 0.25
2,KMPC,≤ 0.25
3,LYFM,≤ 0.25
4,GPCW,≤ 0.25
5,NSSF,≤ 0.25
6,INNF,≤ 0.25
7,GRWS,≤ 0.25
8,LGNK,≤ 0.25
9,LWKE,≤ 0.25
10,LLWF,≤ 0.25
11,IQSK,≤ 0.25
12,NLQP,≤ 0.25
13,WYWS,≤ 0.25
14,YTVE,≤ 0.25
15,LKAW,≤ 0.25
16,FITF,≤ 0.25
17,SNHR,≤ 0.25
18,APQR,≤ 0.25
19,TEES,≤ 0.25
20,IPKG,≤ 0.25
21,NERM,≤ 0.25
22,QHIY,≤ 0.25
23,DFIC,≤ 0.25
24,LGPP,≤ 0.25

row,Variant,enrichment ratio
1,MPAC,≤ 0.25
2,FLAS,≤ 0.25
3,DYCF,≤ 0.25
4,MTSN,≤ 0.25
5,FRTA,≤ 0.25
6,TCLK,13.1
7,GFVD,≤ 0.25
8,SEWR,≤ 0.25
9,LMFF,≤ 0.25
10,QDYP,≤ 0.25
11,DVAM,≤ 0.25
12,VWNV,≤ 0.25
13,RAWN,≤ 0.25
14,SGWN,≤ 0.25
15,DRYT,≤ 0.25
16,PPEY,≤ 0.25
17,ESTA,≤ 0.25
18,MLVW,≤ 0.25
19,CYSY,≤ 0.25
20,LHID,≤ 0.25
21,MPTT,≤ 0.25
22,LHYV,≤ 0.25
23,IYEG,≤ 0.25
24,ILSW,≤ 0.25

row,Variant,enrichment ratio
1,KRRC,≤ 0.25
2,RVGQ,≤ 0.25
3,YELH,3.24
4,LWNC,≤ 0.25
5,LWRF,≤ 0.25
6,PTQW,≤ 0.25
7,NFAQ,≤ 0.25
8,ALSL,10.6
9,GWTW,≤ 0.25
10,PRLP,≤ 0.25
11,MHES,≤ 0.25
12,KTVF,≤ 0.25
13,WTQC,≤ 0.25
14,TFWW,≤ 0.25
15,VANS,≤ 0.25
16,AASA,0.844
17,VMAR,≤ 0.25
18,WCRS,≤ 0.25
19,CLCK,≤ 0.25
20,NWNG,≤ 0.25
21,DRKF,≤ 0.25
22,ALFK,≤ 0.25
23,LMLS,≤ 0.25
24,FDIV,0.676

row,Variant,enrichment ratio
1,QLFS,≤ 0.25
2,QPAH,≤ 0.25
3,LVTL,≤ 0.25
4,LGEQ,≤ 0.25
5,PLDS,≤ 0.25
6,MYQE,≤ 0.25
7,RNHW,≤ 0.25
8,QDGR,≤ 0.25
9,FDQY,≤ 0.25
10,FGWV,≤ 0.25
11,MIIR,≤ 0.25
12,IIGI,≤ 0.25
13,KTIC,≤ 0.25
14,KCPK,≤ 0.25
15,GGLF,4.95
16,RMEP,≤ 0.25
17,PNIE,≤ 0.25
18,INAT,≤ 0.25
19,RDHS,≤ 0.25
20,NWNV,≤ 0.25
21,IMMD,≤ 0.25
22,IPGE,≤ 0.25
23,KQFE,≤ 0.25
24,WVCG,≤ 0.25

row,Variant,enrichment ratio
1,QMTK,≤ 0.25
2,RFYP,≤ 0.25
3,RCTP,≤ 0.25
4,RLSD,≤ 0.25
5,NFPA,≤ 0.25
6,QEFG,30.8
7,LNRK,≤ 0.25
8,VKGI,≤ 0.25
9,SPLL,≤ 0.25
10,HGGS,≤ 0.25
11,VNCM,4.53
12,TTFT,2.36
13,EDDD,≤ 0.25
14,IWLS,≤ 0.25
15,LYQP,≤ 0.25
16,IKSF,≤ 0.25
17,APPE,≤ 0.25
18,GNMN,≤ 0.25
19,ARTE,≤ 0.25
20,EPCK,≤ 0.25
21,HPPN,≤ 0.25
22,EEFF,≤ 0.25
23,VWFS,≤ 0.25
24,WSSK,≤ 0.25

row,Variant,enrichment ratio
1,NCYG,≤ 0.25
2,MLQR,≤ 0.25
3,ADNA,≤ 0.25
4,WFQR,≤ 0.25
5,FNHK,≤ 0.25
6,PPVC,≤ 0.25
7,MPYR,≤ 0.25
8,PGPK,≤ 0.25
9,PHTN,≤ 0.25
10,AMGK,≤ 0.25
11,RNHD,≤ 0.25
12,HRRK,≤ 0.25
13,RPLK,≤ 0.25
14,GHSN,≤ 0.25
15,MLYF,≤ 0.25
16,HFMA,≤ 0.25
17,YQWD,≤ 0.25
18,AWSE,≤ 0.25
19,VMVT,≤ 0.25
20,TYEH,≤ 0.25
21,LRAI,≤ 0.25
22,IEAQ,≤ 0.25
23,AYHL,≤ 0.25
24,MLMK,≤ 0.25

row,Variant,enrichment ratio
1,DLHA,≤ 0.25
2,NDRF,≤ 0.25
3,RRWC,≤ 0.25
4,YPIS,≤ 0.25
5,IEMA,≤ 0.25
6,FHNQ,≤ 0.25
7,AAGT,≤ 0.25
8,VHEH,≤ 0.25
9,CPYS,≤ 0.25
10,WGSL,≤ 0.25
11,YCWW,≤ 0.25
12,DITM,≤ 0.25
13,HNWW,≤ 0.25
14,MYCV,0.342
15,CVLL,≤ 0.25
16,RVNF,≤ 0.25
17,GSGQ,≤ 0.25
18,QIRF,≤ 0.25
19,QSFK,≤ 0.25
20,VLQF,≤ 0.25
21,EMGC,≤ 0.25
22,DCHD,≤ 0.25
23,EMWA,≤ 0.25
24,EICY,≤ 0.25

row,Variant,enrichment ratio
1,GYTQ,≤ 0.25
2,ERLP,≤ 0.25
3,MRFT,≤ 0.25
4,KYNG,≤ 0.25
5,LAKC,≤ 0.25
6,KVDP,≤ 0.25
7,KRMK,≤ 0.25
8,PERS,≤ 0.25
9,NLFM,≤ 0.25
10,KTLQ,≤ 0.25
11,TWMK,≤ 0.25
12,YQHW,≤ 0.25
13,DHFS,≤ 0.25
14,EPAD,≤ 0.25
15,AWVC,≤ 0.25
16,VSKK,≤ 0.25
17,QEVY,≤ 0.25
18,MPAI,≤ 0.25
19,PTDM,≤ 0.25
20,AGLQ,13.5
21,PHWN,≤ 0.25
22,IWTA,≤ 0.25
23,GNFI,0.579
24,SLVH,2.06

row,Variant,enrichment ratio
1,ACGF,6.85
2,NEHL,≤ 0.25
3,ASVN,7.54
4,LNRS,≤ 0.25
5,LIRL,≤ 0.25
6,IMAL,≤ 0.25
7,FGTR,≤ 0.25
8,YKTP,≤ 0.25
9,MAQN,≤ 0.25
10,DFWS,≤ 0.25
11,GHLG,≤ 0.25
12,HHTW,≤ 0.25
13,LDYE,≤ 0.25
14,SRTD,≤ 0.25
15,SWKF,≤ 0.25
16,LIKV,≤ 0.25
17,HPIA,≤ 0.25
18,MTSE,≤ 0.25
